PubChem BioAssay AID651582 (Sanford-Burnham Center for Chemical Genomics, 2012)
This is one part of the list. The main result of the screen is listed elsewhere. These columns were measured beside it and carry no call. Compounds called inactive in the main read-out are mostly missing here.

Assay: TAG lipid buildup reduction in H9c2 cells – cell-based, uHTS, fluorescence, primary screen (AID 651582)
Conditions: Nile Red lipid (TAG) fluorescence, measured here:, at 12.5 µM, cells loaded with 200 µM oleic acid

SMILES | DAPI nuclei signal change (viability), lower = more cytotoxic [%]
O=C(C[C@H]1C[C@H](C(=O)N2CCCCC2)[C@@]2(CCc3ccccc3)c3[nH]c4cc(-c5ccco5)ccc4c3CCN2C1=O)NCc1cccc(C(F)(F)F)c1 | 11.8
OCCCn1c(C2CCCN2c2nc(-c3ccc(F)cc3)cs2)nc2cc(C(F)(F)F)ccc21 (stereo not given) | -11
Cc1cc(C)c2nc(SCC(=O)N3CC(=O)Nc4ccccc43)c(C#N)cc2c1 | -21.1
O=C(NCC(c1ccc(F)cc1)N1CCOCC1)c1ccc([N+](=O)[O-])o1 (stereo not given) | -48
CCOc1ccc(C2=Nc3ccccc3C(c3ccc(N4CCOCC4)cc3)=NN2)cc1 | -1.02
CC(C)n1cc(/C=C2/NC(=O)N(c3cccc(Cl)c3)C2=O)c2ccccc21 | -16.9
COC(=O)/C=C/c1ccccc1S(=O)(=O)N(Cc1ccccc1)Cc1ccco1 | -39.7
CS(=O)(=O)c1ccc(C(=O)OCC(=O)NCc2cccs2)cc1[N+](=O)[O-] | -28.7
COc1cc(C#Cc2c(-c3cncn3C)n(C)c3ccc(-c4cc(OC)c(OC)c(OC)c4)cc23)cc(OC)c1 | 63.7
Cc1ccc(CNC(=O)c2ccc(N3CCC4(CC3)CC(c3ccccc3)=NO4)c(NC(=O)c3ccc(Br)cc3)c2)cc1 | 1.97
N#C/C(=C\Nc1ccc2cn[nH]c2c1)c1nc(-c2ccc(Cl)cc2)cs1 | -48.9
O=C(Nc1c2ccccc2nc2ccccc12)C(Cl)(Cl)Cl | -14.7
Cc1ccc2c(c1)c1c(n2CC(O)CNC2CCCC2)CCCC1 (stereo not given) | -46.5
O=C(Nc1ccc([N+](=O)[O-])cn1)c1cc(-c2cccc(Cl)c2)nc2ccccc12 | -15.3
CCN1CCN(c2cc(C)c3cc(NC(=O)c4ccc(Br)o4)ccc3n2)CC1 | -0.256
Nc1ccccc1C#Cc1ccccc1 | -10.8
O=C(CCC(=O)N1CCOc2ccc(Cl)cc21)NCCCN1CCC(Cc2ccccc2)CC1 | -36.1
Oc1cc(NCCN2CCOCC2)cc2cccnc12 | -29.8
Cc1cc(N2CCOCC2)nc2ccc(NC(=O)C3CCC(C)CC3)cc12 (stereo not given) | 22.5
CCCCNC(=O)C(=O)Nc1ccc2c(c1)N(S(=O)(=O)c1cccs1)CCC2 | -47.2
CC1(C(=O)Nc2ccc3c(c2)OCO3)Cc2c(-c3cccc(C(N)=O)c3)ccnc2O1 (stereo not given) | -29.1
C=CC[C@@H](CC(=O)N(CCO)Cc1ccccc1)C(=O)N[C@H](COC(=O)[C@@H](CC=C)Cc1ccc(F)cc1)Cc1c[nH]c2ccccc12 | -4.16
O=C1N=C(N2CCOCC2)S/C1=C/c1ccc(-c2ccc(F)cc2)o1 | -38.7
COCCNc1nc(-c2ccccc2CO)c2sc(-c3ccccc3)cc2n1 | 34.6
O=C(CCl)N(CCCNC(=O)C(F)(F)F)c1ccc([N+](=O)[O-])cc1 | -11.6
